# Experimental data taken from the supplement of paper PMC3334620.
# Whole data set: some 33,000 sequences, median “E-score (-0.5 to 0.5)” near -0.053, cut for the highest 2% near 0.37. Some of the results follow.
# Target: Hap1 (UniProt P0CE41)
# Experiment: PBM E-score (8-mer binding enrichment) (E-score (-0.5 to 0.5)); higher = stronger / more preferred TF binding; most listed sequences are background and not binding sites
# Conditions: protein concentration: 200 nM; construct: GST-DNA-binding domain
# Summary of the method: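 Universal all-10-mer Agilent arrays, fresh or stripped once, were converted to double-stranded form by primer extension. GST-tagged yeast transcription factors from PURExpress in vitro transcription/translation, full-length or DNA-binding domain only, were applied at about 100-200 nM and detected with fluorescent anti-GST. After masliner normalisation, the Universal PBM Analysis Suite scored each ungapped eight-base word together with its reverse complement by E-score.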
# UniProt P0CE41, sequence (P0CE41 whole entry): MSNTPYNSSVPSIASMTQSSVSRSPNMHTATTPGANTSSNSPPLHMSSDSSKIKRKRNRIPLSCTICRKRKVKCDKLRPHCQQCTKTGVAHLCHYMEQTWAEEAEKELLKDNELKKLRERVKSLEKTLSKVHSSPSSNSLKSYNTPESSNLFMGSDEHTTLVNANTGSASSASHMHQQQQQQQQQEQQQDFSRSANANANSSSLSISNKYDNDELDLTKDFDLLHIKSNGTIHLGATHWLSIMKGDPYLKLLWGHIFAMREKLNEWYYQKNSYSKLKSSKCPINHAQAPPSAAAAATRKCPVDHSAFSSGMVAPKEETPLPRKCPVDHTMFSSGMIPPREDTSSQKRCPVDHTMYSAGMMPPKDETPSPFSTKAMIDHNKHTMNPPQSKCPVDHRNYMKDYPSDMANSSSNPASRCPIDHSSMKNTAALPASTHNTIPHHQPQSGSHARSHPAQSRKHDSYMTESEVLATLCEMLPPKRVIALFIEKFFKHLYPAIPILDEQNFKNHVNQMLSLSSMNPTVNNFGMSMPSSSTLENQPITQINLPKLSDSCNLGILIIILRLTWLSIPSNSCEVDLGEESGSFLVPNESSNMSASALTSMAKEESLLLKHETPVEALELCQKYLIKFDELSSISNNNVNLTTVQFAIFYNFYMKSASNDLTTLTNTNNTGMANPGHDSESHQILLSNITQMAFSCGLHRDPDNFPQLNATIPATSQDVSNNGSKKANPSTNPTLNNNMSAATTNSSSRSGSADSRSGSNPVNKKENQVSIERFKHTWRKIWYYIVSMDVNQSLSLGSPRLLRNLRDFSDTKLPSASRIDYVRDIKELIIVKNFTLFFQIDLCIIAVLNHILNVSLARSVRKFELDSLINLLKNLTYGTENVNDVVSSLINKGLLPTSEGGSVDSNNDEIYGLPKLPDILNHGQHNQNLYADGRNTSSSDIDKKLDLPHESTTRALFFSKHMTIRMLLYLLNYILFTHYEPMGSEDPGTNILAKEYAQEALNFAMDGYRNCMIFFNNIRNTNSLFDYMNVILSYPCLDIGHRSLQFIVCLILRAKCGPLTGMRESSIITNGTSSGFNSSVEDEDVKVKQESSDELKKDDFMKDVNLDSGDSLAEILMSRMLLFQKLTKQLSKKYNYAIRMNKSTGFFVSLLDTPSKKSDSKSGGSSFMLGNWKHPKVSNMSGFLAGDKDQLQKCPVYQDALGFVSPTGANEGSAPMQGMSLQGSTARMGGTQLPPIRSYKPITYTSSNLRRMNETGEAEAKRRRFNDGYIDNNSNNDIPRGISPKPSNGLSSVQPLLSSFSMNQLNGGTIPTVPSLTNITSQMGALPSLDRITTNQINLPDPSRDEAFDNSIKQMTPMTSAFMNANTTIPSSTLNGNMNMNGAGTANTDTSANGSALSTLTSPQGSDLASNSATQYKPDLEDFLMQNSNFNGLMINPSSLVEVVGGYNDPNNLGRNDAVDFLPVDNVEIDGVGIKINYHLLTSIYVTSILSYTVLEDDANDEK
row,Sequence,PBM E-score
1,CCTCTCAC,-0.242
2,CACAGAAA,-0.238
3,CCCAAGTC,-0.143
4,GACTATGA,-0.143
5,CGGCATAA,0.254
6,CTCAGGGC,-0.134
7,CTGCCTCC,0.00063
8,TTAACCAA,-0.186
9,GAAACGCA,-0.0454
10,GTAGGAAC,-0.103
11,GAATACCA,-0.0351
12,AAAGGGGC,-0.162
13,TCCCTACA,-0.0494
14,AAGCCGGG,0.238
15,CGTTGTGA,-0.076
16,ACCCTCTA,-0.189
17,ACATGGAT,-0.145
18,AACTGCGT,-0.16
19,AAAATTAT,0.122
20,CATCTTTA,-0.165
21,ATAGTCCC,0.0684
22,ATCCGGAA,0.396
23,AACGACAC,-0.167
24,GATGAACA,-0.0212
25,CTTGTTTC,-0.0739

row,Sequence,PBM E-score
1,ATCTTCAT,-0.0312
2,CCTCGTGC,0.056
3,CCTCGGAA,0.314
4,CAAGCGAC,-0.0916
5,ACTCATAG,-0.233
6,GCTTAGCA,-0.0588
7,AACGATAG,0.118
8,ATACGTTA,-0.106
9,CTAGCCCC,0.0617
10,ATCAGAGC,-0.0942
11,GCACTAGA,-0.14
12,AGTCCAAT,-0.139
13,TCAACACA,-0.17
14,CTCAATAA,-0.139
15,GTAGTCCA,-0.135
16,CTCCTCAC,-0.186
17,GCGCGGCA,0.0895
18,TACCGTAA,0.0658
19,GCTATCGA,0.0431
20,AAAGGGTC,0.0161
21,AGGGCACG,-0.153
22,CCTGGGTC,-0.0881
23,AGTTGATG,-0.292
24,AAGTACAG,-0.329
25,ATCTGAAG,-0.198

row,Sequence,PBM E-score
1,AATCGTTC,-0.0339
2,AAATTGCT,-0.254
3,CGCAGCAA,-0.197
4,ACCCACAC,-0.0782
5,GGGCGCTA,-0.012
6,ATCCCAAG,-0.0728
7,CGTCCAAG,-0.111
8,ATCTTATC,0.0764
9,TGTCTAAA,-0.17
10,GGAGAGCA,-0.162
11,CATAGATG,-0.172
12,GAGGGCGC,0.0213
13,GACGCAGA,0.117
14,GAGTTAAA,0.0663
15,GGAAGGAC,-0.00898
16,GGGACTAC,0.0857
17,AATATGCC,0.0223
18,CTTGGTAC,-0.213
19,CTTTTCAC,-0.041
20,CTGATTAA,0.00066
21,CGAGCGGA,0.37
22,CAGTAATA,-0.163
23,CAATGCAC,-0.201
24,ACGGGCAG,-0.0462
25,CCACAGTA,-0.213

row,Sequence,PBM E-score
1,ATTTGTTA,-0.033
2,GAGATTAA,-0.0472
3,AGAGGCTC,-0.088
4,CATTAATG,-0.0191
5,AATATAGT,0.0483
6,ATATGAAA,-0.078
7,ATAATTGG,0.105
8,TATCAGAA,0.0826
9,TCCGACCA,0.286
10,CTGCAGTC,-0.176
11,ATAACCGG,0.363
12,AGACTATG,-0.119
13,ATGAGTTC,-0.0156
14,GTATTATA,0.094
15,AAAAAAAT,0.0105
16,TGGTAACA,-0.141
17,CTCAGAGC,-0.254
18,GAAAACGA,0.00989
19,AAATTACC,0.0508
20,AGAGTAGC,-0.227
21,GAGAAAAC,0.0285
22,TCGCGCAA,-0.103
23,ACAAGGCG,-0.0873
24,TTAAATAA,0.171
25,CAGGAATG,-0.213

row,Sequence,PBM E-score
1,CGTGGAGC,0.0223
2,ATCCGTAA,0.291
3,GAGCAGAA,0.00194
4,CGCGCCTA,0.132
5,TGAGTAAA,-0.176
6,GGATAGGA,0.0403
7,ACTTGGAT,-0.211
8,AACTCGGG,0.198
9,AGATGTCG,0.0897
10,ACCCGCGA,0.0755
11,CATGGTCG,-0.066
12,GGCAACCC,-0.128
13,AGGCGGCA,-0.172
14,CCTAAGAC,-0.154
15,CAACACTA,-0.0443
16,AACACATT,0.00416
17,AGTTGTCG,0.12
18,GAAATGGA,-0.116
19,ACTATGCT,-0.118
20,AGCATTCA,-0.17
21,AAAGGCCC,0.0104
22,GATGCATC,0.0209
23,ATCCATAA,0.138
24,AGTGATTC,-0.0523
25,ACGGTAAT,0.219

row,Sequence,PBM E-score
1,ACATCAGA,-0.236
2,AACCTGGC,-0.169
3,CGAGATGA,0.13
4,CCCCTGGC,0.00023
5,CAGTGAAG,-0.166
6,ATCTTGGG,-0.0696
7,GTAGAGTA,-0.102
8,GGTCACAA,0.00707
9,GACTAATC,0.231
10,GTCCCAAC,-0.11
11,ACTAATTC,0.129
12,CAAGGTGC,-0.0166
13,AACCATGT,-0.0592
14,GCAACACA,-0.101
15,ACCGAATG,0.239
16,AAACGCCG,0.402
17,AGTCTAAC,-0.0367
18,ACCTCTGA,0.0681
19,GAGAGGGC,-0.178
20,CAACGGGG,0.143
21,CCGTCAAG,0.0352
22,AACAATAA,0.0371
23,ATCACCAT,0.0457
24,CATTTAAC,-0.0471
25,CTCGCCAC,-0.0597

row,Sequence,PBM E-score
1,CCCAAGGA,-0.167
2,GTATCGAC,-0.0815
3,ATTCACCG,0.265
4,GTCCTACA,0.145
5,ACTTGATC,-0.11
6,GGACGTTA,0.214
7,AGCATAAG,-0.0611
8,AATCTGTA,-0.107
9,ATCACATC,-0.0189
10,AAACATCT,-0.105
11,GGTATCCA,0.052
12,GTTGGTCA,-0.025
13,AACTAGCA,-0.0223
14,ACATCCTG,-0.0661
15,AGTAATCG,0.0868
16,AGACTGCT,-0.211
17,AGATCTGC,-0.216
18,GCGTTCCC,0.15
19,ACCATCAC,-0.153
20,GCGAACTA,0.106
21,AGCATTGC,-0.00159
22,GGGTACAA,0.127
23,CGGCAAAG,0.234
24,ACGTTTCA,-0.112
25,CGACCGGC,0.232

row,Sequence,PBM E-score
1,AGACGTGC,-0.0222
2,GCGTAAGA,0.0174
3,AGCCTGTA,-0.131
4,AACGGAGG,0.228
5,AAAATCCA,0.054
6,GACTACCC,-0.0359
7,AATAGGCG,0.224
8,AACTCTGT,-0.111
9,CGCCTACC,-0.0452
10,GTTTGCTA,-0.0274
11,CCACTATC,0.202
12,GTAACATA,0.0732
13,CTTCCGCC,0.154
14,ATCATTGA,-0.139
15,ATGAGAGC,-0.11
16,GTATGACA,-0.0338
17,AGGCACGC,-0.0542
18,TTAACGAA,0.0696
19,GAACTTAA,0.0986
20,CATAGTAC,-0.098
21,GAACCCTC,0.0184
22,GGTTCCGA,0.279
23,CTTGTAGA,-0.21
24,CGAACTAG,0.162
25,CGTCTATC,0.0051

row,Sequence,PBM E-score
1,CAGTTTCA,-0.241
2,GTACCCAC,0.0414
3,CCCGGACG,0.388
4,ATCACCAA,-0.144
5,AGACCGCC,0.0771
6,CGCATTTA,0.312
7,CCCAGAGG,-0.125
8,ATCCCACC,0.211
9,AGGCGCAA,0.0886
10,TTCCGCAA,0.263
11,ATCCGAAG,0.326
12,ATATCCCG,0.286
13,AACTTCGA,-0.127
14,CTCAGATA,-0.0708
15,AGAACGTG,-0.0896
16,AATAACAT,-0.106
17,CTTATTGC,0.023
18,AAGTATGT,-0.281
19,CAGGCGCA,-0.262
